Experimental findings from US20230250147A1 (Sanofi, published 2023) are described below.

Holding throughout (assay): cell-based or functional assay
Assay [1] addresses T1, human FGFR1c together with human beta-Klotho (KLB) (human, UniProt P11362 22-822; Q86Z14 1-1044).
In assay [2] the target is T2, Mouse GLP-1R (mouse, UniProt O35659 22-463).
T2 sequence (looked up): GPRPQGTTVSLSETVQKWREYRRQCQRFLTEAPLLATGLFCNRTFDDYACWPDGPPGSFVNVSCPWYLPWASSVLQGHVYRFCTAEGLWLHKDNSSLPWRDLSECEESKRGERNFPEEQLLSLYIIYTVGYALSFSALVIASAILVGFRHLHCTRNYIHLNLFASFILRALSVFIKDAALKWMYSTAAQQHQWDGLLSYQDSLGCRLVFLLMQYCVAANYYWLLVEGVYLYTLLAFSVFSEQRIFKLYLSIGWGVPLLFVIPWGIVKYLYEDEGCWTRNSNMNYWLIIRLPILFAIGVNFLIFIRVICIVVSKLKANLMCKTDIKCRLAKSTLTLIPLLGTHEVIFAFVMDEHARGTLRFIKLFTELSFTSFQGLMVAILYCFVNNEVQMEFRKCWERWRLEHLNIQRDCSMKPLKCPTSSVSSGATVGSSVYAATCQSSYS

For assay [3], the target named is Monkey GLP-1R (monkey).
Assay [4] has as its target human glucagon-like peptide-1 (GLP-1) receptor (human, UniProt P43220 24-463).
The target of assay [5] is T1, human FGFR1c together with human …. This is another data set of the same source.

T1 sequence (P11362 22-822, chain 1 of 2): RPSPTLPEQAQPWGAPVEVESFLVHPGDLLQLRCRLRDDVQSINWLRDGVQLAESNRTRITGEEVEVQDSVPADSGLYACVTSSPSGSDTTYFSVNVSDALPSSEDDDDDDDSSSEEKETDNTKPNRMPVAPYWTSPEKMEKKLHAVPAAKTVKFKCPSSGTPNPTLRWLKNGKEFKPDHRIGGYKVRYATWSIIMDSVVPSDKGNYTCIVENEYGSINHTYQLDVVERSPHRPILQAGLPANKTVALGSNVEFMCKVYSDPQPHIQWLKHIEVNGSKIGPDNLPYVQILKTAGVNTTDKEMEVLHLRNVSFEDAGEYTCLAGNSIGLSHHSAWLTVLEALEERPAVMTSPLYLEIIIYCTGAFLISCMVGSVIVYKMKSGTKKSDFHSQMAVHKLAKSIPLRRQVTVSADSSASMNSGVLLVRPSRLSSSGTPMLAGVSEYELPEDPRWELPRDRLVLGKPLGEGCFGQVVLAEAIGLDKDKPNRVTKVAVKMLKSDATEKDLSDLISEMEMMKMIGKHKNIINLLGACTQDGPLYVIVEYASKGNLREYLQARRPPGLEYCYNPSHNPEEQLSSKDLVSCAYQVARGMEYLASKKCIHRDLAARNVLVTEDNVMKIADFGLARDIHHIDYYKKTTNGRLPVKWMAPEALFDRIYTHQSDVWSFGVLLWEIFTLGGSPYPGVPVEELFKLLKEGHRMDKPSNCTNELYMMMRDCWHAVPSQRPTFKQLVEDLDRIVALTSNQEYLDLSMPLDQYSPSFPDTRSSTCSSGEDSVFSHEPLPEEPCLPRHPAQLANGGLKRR
T1 sequence (Q86Z14 whole entry, chain 2 of 2, further chain): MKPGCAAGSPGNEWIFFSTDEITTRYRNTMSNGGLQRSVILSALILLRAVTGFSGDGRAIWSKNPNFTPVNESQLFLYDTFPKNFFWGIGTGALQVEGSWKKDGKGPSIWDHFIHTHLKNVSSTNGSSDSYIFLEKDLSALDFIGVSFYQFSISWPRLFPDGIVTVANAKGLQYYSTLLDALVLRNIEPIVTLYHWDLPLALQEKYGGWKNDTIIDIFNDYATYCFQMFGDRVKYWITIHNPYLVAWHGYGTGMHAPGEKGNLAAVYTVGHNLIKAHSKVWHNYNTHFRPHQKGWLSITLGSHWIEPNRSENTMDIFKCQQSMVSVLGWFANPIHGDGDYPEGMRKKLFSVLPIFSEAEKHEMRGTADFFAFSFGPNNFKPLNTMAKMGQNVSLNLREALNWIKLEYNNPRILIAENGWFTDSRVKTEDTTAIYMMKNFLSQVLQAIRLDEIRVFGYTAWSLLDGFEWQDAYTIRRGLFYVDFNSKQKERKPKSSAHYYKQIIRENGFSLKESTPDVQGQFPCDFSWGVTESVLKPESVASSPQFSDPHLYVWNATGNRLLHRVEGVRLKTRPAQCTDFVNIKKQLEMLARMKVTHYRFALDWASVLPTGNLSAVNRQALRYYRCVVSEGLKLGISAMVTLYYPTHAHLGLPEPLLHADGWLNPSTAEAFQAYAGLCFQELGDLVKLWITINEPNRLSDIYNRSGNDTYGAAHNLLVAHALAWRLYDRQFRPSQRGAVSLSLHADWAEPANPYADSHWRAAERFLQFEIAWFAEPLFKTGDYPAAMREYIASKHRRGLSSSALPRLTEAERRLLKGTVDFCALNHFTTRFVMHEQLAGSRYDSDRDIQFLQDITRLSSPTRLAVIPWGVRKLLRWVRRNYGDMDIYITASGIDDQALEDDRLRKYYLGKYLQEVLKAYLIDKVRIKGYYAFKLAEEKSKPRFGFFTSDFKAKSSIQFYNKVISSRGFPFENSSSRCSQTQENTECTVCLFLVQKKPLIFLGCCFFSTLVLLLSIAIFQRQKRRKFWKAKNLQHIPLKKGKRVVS

B1: GLP-1RA/FGF21 Fc fusion protein SEQ ID NO: 7 (Fc fusion)
chain: GHGEGTFTSDKSKQLEEEAVRLFIEWLKAGGPKKIRYSGGGGGGGSGGGGSGGGGSA[… human IgG1 Fc with changes …]GGGSGSAHPIPDSSPLLQFGGQVRQRYLYTDDACQTEAHLEIREDGTVGGAADQSPESLLQLKALKPGVIQILGVKTSRFLCQRPDGALYGSLHFDPEACSFRELLLEDGYNVYQSEAHGLPLHLPGCKSPHRDPAPRGPARFLPLPGLPPAPPEPPGILAPQPPDVGSSDPLSMVGSQGRSPSYAS
For B1, the “pERK ICW EC50” value in assay [1] was 5.96 nmol/L. Also, the results for the “HTRF cAMP EC50” value in assay [2], in assay [3] and in assay [4] were 0.0681 nM, 0.19 nM and 0.131 nM, respectively. In addition, in assay [5], the “pFGFR ICW EC50” value stood at 27.9 nmol/L.

B2: GLP-1RA/FGF21 Fc fusion protein SEQ ID NO: 8 (Fc fusion)
chain: GHGEGTFTSDKSKQLEEEAVRLFIEWLKAGGPKKIRYSGGGGGGGSGGGGSGGGGSA[… human IgG1 Fc with changes …]GGGSGSAHPIPDSSPLLQFGGQVRQRYLYTDDACQTEAHLEIREDGTVGGAADQSPESLLQLKALKPGVIQILGVKTSRFLCQRPDGALYGSLHFDPEACSFRELLLEDGYNVYQSEAHGLPLHLPGCKSPHRDPAPRGPARFLPLPGLPPAPPEPPGILAPQPPDVGSSDPLSMVYPSQGRSPSYAS
Consider B2, for which the “pERK ICW EC50” value in assay [1] came out at 6.75 nmol/L. Moreover, the entries for the “HTRF cAMP EC50” value in assay [2], in assay [3] and in assay [4] were 0.0771 nM, 0.217 nM and 0.152 nM, respectively. Moreover, the “pFGFR ICW EC50” value in assay [5] turned out to be 25.4 nmol/L.
